# Laboratory results published in PubChem BioAssay AID1346428 (National Center for Advancing Translational Sciences (NCATS), 2018).
# The campaign covered roughly 48,000 compounds. About 1,200 (2.5%) were called active. Inconclusive results (about 2%) are left out.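 How the source made its calls: active means activation of at least 60% and not above a set upper limit (about 1 call in 100 departs from these limits); inconclusive means activation of 40% to 60%, or above that upper limit; inactive means activation under 40%.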 Some of the results follow.
# Biological target: Probable G-protein coupled receptor 32 (Homo sapiens) (UniProt O75388)
# Test: qHTS for Agonists of Human Resolvin D1 Receptor DRV1; further: 0% is about no effect
# Details: CHO-K1 GPR32 beta-arrestin PathHunter luminescence, 90 min; at 76.9 µM; active compounds read high; zero percent set by DMSO-only wells
# Procedure, shortened: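 Engineered CHO-K1 line co-expressing GPR32-ProLink and EA-beta-arrestin. Compound treatment lasted 90 min at 37 °C. Luminescence was recorded after 1 h with substrate at ambient temperature, relative to DMSO basal wells.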
# UniProt O75388, sequence (O75388 whole entry, looked up): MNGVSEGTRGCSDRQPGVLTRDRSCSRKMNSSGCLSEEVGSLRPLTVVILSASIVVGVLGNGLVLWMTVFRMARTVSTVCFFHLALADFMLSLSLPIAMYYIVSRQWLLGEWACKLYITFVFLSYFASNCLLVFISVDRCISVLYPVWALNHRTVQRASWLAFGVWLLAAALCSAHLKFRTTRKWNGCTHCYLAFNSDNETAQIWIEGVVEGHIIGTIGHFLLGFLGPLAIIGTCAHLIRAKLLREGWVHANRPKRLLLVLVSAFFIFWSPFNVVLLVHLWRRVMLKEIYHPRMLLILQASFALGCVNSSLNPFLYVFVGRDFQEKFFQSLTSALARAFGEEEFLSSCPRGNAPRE
row,Structure (SMILES),activation
1,CCOc1ccc(CCNC(=O)CS(=O)Cc2nc(-c3ccc(C)cc3)oc2C)cc1OCC (stereo not drawn),inactive: -12.4%
2,CCOC(=O)c1c(C)[nH]c(C)c1S(=O)(=O)N1CCC(C(=O)Nc2ccc(F)cc2F)CC1,inactive: 14.2%
3,CCOc1ccccc1NC(=O)Cn1c(=O)n(CCCC(=O)NCCOC)c(=O)c2cc(OC)c(OC)cc21,inactive: 5.1%
4,CC(=O)c1ccc(NC(=O)c2ccc3c(c2)N(Cc2cccc(Cl)c2)C(=O)c2ccccc2S3(=O)=O)cc1,inactive: -35.9%
5,COC(=O)c1ccccc1NC(=O)CSc1nc(-c2ccccc2)cc(C(F)(F)F)n1,inactive: -7.04%
6,Cc1c(C(N)=O)cc([N+](=O)[O-])cc1[N+](=O)[O-],inactive: -4.79%
7,Cc1ccc(NC(=O)CN2CCCN(Cc3ccccc3Cl)S2(=O)=O)c(C)c1,inactive: -7.79%
8,COc1ccc(CNC(=O)Cn2ccc3cc(S(=O)(=O)N4CCCCC4)ccc32)c(OC)c1,inactive: -9.84%
9,COc1ccccc1CNC(=O)CCc1c(C)nc2cc(-c3ccccc3OC)nn2c1C,inactive: -0.519%
10,Cc1cc(Cl)ccc1NC(=O)CN1C(=O)CSc2ccc(S(=O)(=O)N(C)C)cc21,inactive: 9.46%
11,CCOCCc1nn2c(=O)cc(COC(=O)COc3ccccc3Cl)nc2s1,inactive: -12.7%
12,COC(=O)c1sc2cccc(F)c2c1S(=O)(=O)N1CCN(c2ccccc2OC)CC1,inactive: -37.2%
13,COc1ccc(OC)c(NC(=O)CSc2nc(-c3ccccc3C)nc3cc(=O)[nH]n23)c1,inactive: 17.4%
14,CC(NC(=O)c1nn(C)c2c1CSc1ccccc1-2)c1ccccc1 (stereo not drawn),inactive: -14.8%
15,CC1CCN(C(=O)CN2CCSc3ccccc32)CC1,inactive: -18.2%
16,O=C(Nc1ccc(SC(F)F)cc1)c1cc(-c2cccs2)on1,inactive: 4.28%
17,O=C(NCCc1ccccc1)c1ccc2c(c1)CCN2S(=O)(=O)c1ccc(Br)cc1,inactive: -9.68%
18,CC(=O)c1cccc(NC(=O)CCCN2C(=O)COc3ccc(C)cc32)c1,inactive: -15.8%
19,CCOc1ccc(C(=O)Nc2nnc(S(=O)(=O)N(CC)c3ccccc3C)s2)cc1,inactive: 0.388%
20,Cc1ccc(-c2cc(NC(=O)C(C)Oc3ccc(C)c(C)c3)on2)cc1 (stereo not drawn),inactive: -15.2%
21,O=C(Cc1ccccc1)Nc1c(C(=O)N2CCN(c3ccc(F)cc3)CC2)oc2ccccc12,inactive: -5.09%
22,Cc1ccc(C)c(NC(=O)CN2C(=O)CSc3nc(C)cc(C)c32)c1,inactive: -10.5%
23,COc1ccc(CNc2ccc3cc(S(=O)(=O)N4CCCCC4)ccc3n2)cc1,inactive: 5.44%
24,CCC(=O)N1CCCc2cc(S(=O)(=O)N3CCC(C(=O)Nc4ccc(F)c(F)c4)CC3)ccc21,inactive: 7.19%
25,CCNc1nc2c(c(=O)[nH]c(=O)n2C)n1CC(O)COc1ccc(Cl)cc1Cl (stereo not drawn),inactive: -7.57%
26,COc1ccc(N2CC(c3nc(-c4cc(OC)c(OC)c(OC)c4)no3)CC2=O)cc1Cl (stereo not drawn),inactive: -11.3%
27,COc1cc(OC)cc(C(=O)N2CCC(c3ccncc3)CC2)c1,inactive: 6.52%

row,Structure (SMILES),activation
1,O=C(CCS(=O)(=O)c1cccs1)Nc1ccc(C(=O)Nc2cccc(Cl)c2)cc1,active: 65.3%
2,Cc1cc(C)c2c(=O)c3c(oc2c1)C(=O)N(Cc1ccc(F)cc1)C3c1cccc(O)c1 (stereo not drawn),inactive: -26%
3,COc1cccc(NC(=O)CN2CCCN(S(=O)(=O)c3ccc(Br)cc3)CC2)c1,inactive: -7.5%
4,COc1ccc(Cn2ccnc2SCC(=O)Nc2ccc(C)cc2C)cc1,inactive: -13%
5,CC(C)(C)CC(=O)Nc1nnc2n1CCS2,inactive: 11.9%
6,Cc1ccc(CNC(=O)CN(c2ccc(C(C)C)cc2)S(=O)(=O)c2c(C)n[nH]c2C)cc1,active: 83.3%
7,O=C(NCCSCc1c(F)cccc1Cl)C1CCN(S(=O)(=O)Cc2ccccc2)CC1,inactive: -4.9%
8,COc1ccccc1CNC(=O)CN1C(=O)CSc2c1c(C)nn2-c1ccccc1,inactive: -21.9%
9,CCCC(=O)NCC(c1ccc2c(c1)OCO2)N1CCOCC1 (stereo not drawn),inactive: 0.191%
10,O=C(COc1ccc(Cl)cc1)Nc1ccccc1C(=O)OCc1cc(=O)n2ccsc2n1,inactive: -10.7%
11,Cc1cc(C)cc(N(CC(=O)NCc2ccccc2Cl)S(=O)(=O)c2c(C)[nH]c(=O)[nH]c2=O)c1,inactive: -3.06%
12,CCOc1ccc(NC(=O)CN2CCSc3ccc(S(=O)(=O)N4CCCC4)cc32)cc1,inactive: -0.037%
13,CCn1cc(S(=O)(=O)c2ccc(C)cc2C)c(=O)c2cc(F)c(N3CCCCC3)cc21,inactive: -32.1%
14,COC(=O)c1c(NC(=O)/C=C/c2ccc(OC)c(OC)c2)sc2c1CCC2,inactive: -17.9%
15,CCN(CC)c1cc2c(cc1F)c(=O)c(S(=O)(=O)c1ccccc1)cn2C,inactive: -8.36%
16,Cc1noc(Cn2c(=O)c3ccccc3n(CC(=O)Nc3ccc(C(C)C)cc3)c2=O)n1,inactive: -29.7%
17,O=C(NCc1ccccc1)c1ccc2c(c1)nc1n2CCOC1,inactive: -7.07%
18,COCCNC(=O)CSc1nnc2[nH]c(=O)cc(C)n12,inactive: -11.4%
19,CCN(CC)c1ccc(NC(=O)CN2C(=O)c3cccnc3Oc3ccc(Cl)cc32)c(C)c1,inactive: -6.85%
20,CCN(CC)CCCNC(=O)CN1C(=O)COc2ccc(S(=O)(=O)N3CCC(C)CC3)cc21,inactive: -2.29%
21,CC(Nc1oc(-c2ccc(COc3ccc(Cl)cc3)o2)nc1C#N)c1ccccc1 (stereo not drawn),inactive: 6.88%
22,C[N+]1(C)CCCC(OC(=O)C(O)(c2ccccc2)c2ccccc2)C1 (stereo not drawn),inactive: -6.6%
23,CCc1ccccc1NS(=O)(=O)c1cc(Br)cc2c1N(C(=O)C1CC1)CC2,inactive: 22.8%
24,CCc1cccc(NS(=O)(=O)c2cc(-c3cnc(C)o3)ccc2OC)c1,inactive: 5.49%
25,CCOC(=O)Cn1c(=O)n(CC2CCCO2)c2nc(-c3c(F)cccc3Cl)nc(C(N)=O)c21 (stereo not drawn),inactive: -20.3%
26,CCn1c(=O)c2sccc2n2c(CCCC(=O)Nc3ccc(OC)c(OC)c3)nnc12,inactive: -7.24%
